This is one part of the list. Read counts after selection give these values, which scatter widely. Each score is taken over the longer molecules that contain the sequence shown.
Key:
Assay in all cases: 6-mer SELEX enrichment z-score vs GST control; IMP3 is the RNA-binding protein IGF2BP3; higher = more enriched by binding
IMP3 KH1-4 = conditions: construct: KH1-4 (164-579); SELEX round: R4
Experimental: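 SELEX-seq with GST-tagged IMP3 KH1-4 (Pro164-Lys579) and an N40 RNA pool, round 4. 6-mer z-score of sequence-tag enrichment normalised to the corresponding GST SELEX round; RNA k-mers written as DNA (T for U).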

IMP3 RRM1-2 = conditions: construct: RRM1-2 (1-163); SELEX round: R2
Chain of IMP3 RRM1-2 (chain, as listed by the source): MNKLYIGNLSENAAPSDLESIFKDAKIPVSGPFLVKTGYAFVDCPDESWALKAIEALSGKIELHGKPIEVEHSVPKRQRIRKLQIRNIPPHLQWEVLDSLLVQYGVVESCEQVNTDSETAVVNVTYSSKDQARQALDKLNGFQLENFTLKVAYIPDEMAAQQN
Experimental: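 SELEX-seq with GST-tagged IMP3 RRM1-2 (Met1-Asn163) and an N40 RNA pool, round 2. 6-mer enrichment z-score normalised to GST SELEX. RNA written as DNA (T = U).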

IMP3 full-length = IMP3 full-length (UniProt O00425); conditions: construct: FL IMP3 (1-579); SELEX round: R4
Chain of UniProt O00425 (O00425 whole entry): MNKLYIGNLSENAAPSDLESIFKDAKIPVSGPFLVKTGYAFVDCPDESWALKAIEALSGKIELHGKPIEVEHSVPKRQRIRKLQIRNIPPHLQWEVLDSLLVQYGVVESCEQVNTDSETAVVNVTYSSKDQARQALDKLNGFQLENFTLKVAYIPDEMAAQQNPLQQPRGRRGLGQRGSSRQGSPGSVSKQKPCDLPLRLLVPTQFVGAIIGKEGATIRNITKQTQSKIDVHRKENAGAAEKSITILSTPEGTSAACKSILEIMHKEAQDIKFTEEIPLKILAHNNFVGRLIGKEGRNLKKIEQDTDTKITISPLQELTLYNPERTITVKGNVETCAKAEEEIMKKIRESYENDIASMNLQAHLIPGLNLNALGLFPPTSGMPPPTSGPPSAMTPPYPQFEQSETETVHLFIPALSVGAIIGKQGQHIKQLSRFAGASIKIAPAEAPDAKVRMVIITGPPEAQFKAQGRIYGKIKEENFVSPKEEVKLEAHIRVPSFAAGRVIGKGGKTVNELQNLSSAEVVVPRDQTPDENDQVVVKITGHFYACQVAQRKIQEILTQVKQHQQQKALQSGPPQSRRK
Experimental: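 SELEX-seq with GST-tagged full-length IMP3 and an N40 RNA pool, round 4. Each 6-mer is scored as an enrichment z-score of sequence tags containing it, normalised to the matching GST SELEX round. RNA written as DNA (T = U).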

IMP3 KH1-2 = conditions: construct: KH1-2 (164-376); SELEX round: R4
Chain of IMP3 KH1-2 (chain, as listed by the source): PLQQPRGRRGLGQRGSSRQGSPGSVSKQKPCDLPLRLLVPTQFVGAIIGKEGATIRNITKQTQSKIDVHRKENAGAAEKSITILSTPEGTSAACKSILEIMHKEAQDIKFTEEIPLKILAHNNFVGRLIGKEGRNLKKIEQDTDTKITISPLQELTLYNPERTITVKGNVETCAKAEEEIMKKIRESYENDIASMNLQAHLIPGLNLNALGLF
Experimental: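 SELEX-seq with GST-tagged IMP3 KH1-2 (Pro164-Phe376) and an N40 RNA pool, round 4 (stringent 300/600 mM KCl washes). 6-mer z-score of sequence-tag enrichment normalised to the corresponding GST SELEX round; RNA k-mers written as DNA (T for U).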

IMP3 KH3-4 = conditions: construct: KH3-4 (377-579); SELEX round: R4
Chain of IMP3 KH3-4 (chain, as listed by the source): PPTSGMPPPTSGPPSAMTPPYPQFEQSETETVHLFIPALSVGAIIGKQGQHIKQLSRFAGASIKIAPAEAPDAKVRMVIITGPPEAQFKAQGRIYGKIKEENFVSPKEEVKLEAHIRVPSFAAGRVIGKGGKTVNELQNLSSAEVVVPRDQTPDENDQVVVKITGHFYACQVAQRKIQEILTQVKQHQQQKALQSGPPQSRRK
Experimental: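 SELEX-seq with GST-tagged IMP3 KH3-4 (Pro377-Lys579) and an N40 RNA pool, round 4. 6-mer z-score of sequence-tag enrichment normalised to the corresponding GST SELEX round; RNA k-mers written as DNA (T for U).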

Chain of IMP3 KH1-4 (chain, as listed by the source): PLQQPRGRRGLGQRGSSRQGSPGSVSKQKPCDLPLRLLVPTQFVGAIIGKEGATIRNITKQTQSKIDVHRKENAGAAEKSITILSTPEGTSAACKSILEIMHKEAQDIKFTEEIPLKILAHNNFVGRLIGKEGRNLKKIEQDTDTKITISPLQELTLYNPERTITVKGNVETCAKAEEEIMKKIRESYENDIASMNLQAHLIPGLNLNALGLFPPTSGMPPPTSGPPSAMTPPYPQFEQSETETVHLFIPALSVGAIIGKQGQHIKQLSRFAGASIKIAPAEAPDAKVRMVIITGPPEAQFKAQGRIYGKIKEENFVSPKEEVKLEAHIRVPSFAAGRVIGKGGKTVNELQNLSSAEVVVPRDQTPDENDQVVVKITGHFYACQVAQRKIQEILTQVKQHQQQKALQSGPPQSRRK

| Sequence | 6-mer SELEX enrichment z-score (IMP3 KH1-4) | 6-mer SELEX enrichment z-score (IMP3 RRM1-2) | 6-mer SELEX enrichment z-score (IMP3 full-length) | 6-mer SELEX enrichment z-score (IMP3 KH1-2) | 6-mer SELEX enrichment z-score (IMP3 KH3-4) |
| --- | --- | --- | --- | --- | --- |
| TGCAGC | 0.593 | 0.199 | 0.69 | 0.507 | 0.185 |
| TACGTA | -0.239 | -0.235 | -0.377 | -0.329 | -0.148 |
| CTCCTG | -0.661 | -0.113 | -0.629 | -0.59 | -0.796 |
| CTGTGA | 0.033 | -0.531 | -0.476 | -0.135 | -0.092 |
| GGCATG | 1.02 | 0.357 | 1.61 | 0.741 | 0.863 |
| CTTTGC | 0.171 | 0.185 | -0.109 | 0.115 | -0.015 |
| GAGAGA | 0.705 | -0.913 | -0.268 | 0.58 | 0.772 |
| CCGATT | -0.264 | -0.498 | -0.51 | -0.076 | -0.34 |
| TTGGCG | -0.295 | 0.341 | 0.107 | -0.157 | 0.018 |
| ATGTGG | 0.792 | 0.162 | 0.253 | 0.55 | 0.829 |
| TCTATC | 0.477 | 0.505 | 0.237 | 0.375 | 0.318 |
| CAGAGT | -0.49 | 0.31 | 0.141 | -0.476 | -0.463 |
| GTCAAT | 0.482 | 0.275 | 0.571 | 0.166 | 0.367 |
| GTTGGA | -0.152 | 0.141 | -0.069 | -0.11 | 0.015 |
| GATCTT | -0.006 | 0.263 | 0.018 | -0.038 | 0.08 |
| ATGAAC | 1.14 | -0.951 | -0.25 | 0.968 | 1.36 |
| TGCAAT | 0.808 | 0.155 | 0.416 | 0.701 | 0.752 |
| GCATGA | 0.767 | 0.414 | 1.02 | 0.48 | 0.73 |
| GTATGT | 0.1 | 0.157 | -0.144 | 0.052 | 0.231 |
| CTTCTT | 0.386 | 0.535 | 0.076 | 0.354 | 0.308 |
| GACGAT | -0.187 | -0.898 | -0.475 | -0.346 | -0.132 |
| GTGCTT | -0.174 | 0.308 | -0.093 | -0.1 | -0.011 |

| Sequence | 6-mer SELEX enrichment z-score (IMP3 KH1-4) | 6-mer SELEX enrichment z-score (IMP3 RRM1-2) | 6-mer SELEX enrichment z-score (IMP3 full-length) | 6-mer SELEX enrichment z-score (IMP3 KH1-2) | 6-mer SELEX enrichment z-score (IMP3 KH3-4) |
| --- | --- | --- | --- | --- | --- |
| TATCTA | 0.251 | 0.234 | -0.116 | 0.21 | 0.372 |
| AAGGAA | 0.68 | -1.25 | -0.727 | 0.287 | 1.1 |
| GAAGTT | -0.107 | -0.241 | -0.404 | -0.156 | 0.07 |
| TCCAAA | -1.39 | -0.892 | -1.45 | -1.34 | -1.62 |
| GAACCT | -1.35 | -0.958 | -1.49 | -1.3 | -1.46 |
| CGAGCA | -2.1 | 0.447 | 0.433 | -1.86 | -1.77 |
| GTTATC | -0.215 | 0.346 | -0.067 | -0.218 | -0.17 |
| AGTGAG | -0.007 | -0.391 | -0.167 | -0.119 | 0.084 |
| TAACGA | -0.595 | -1.25 | -1.21 | -0.541 | -0.045 |
| GCATTT | 0.149 | 0.715 | 0.483 | 0.089 | 0.194 |
| GAATTG | 0.373 | -0.665 | -0.436 | 0.176 | 0.658 |
| ATATAC | 2.1 | 0.064 | 0.465 | 2.18 | 2.45 |
| TCCCGA | -1.92 | -0.809 | -1.32 | -1.68 | -1.84 |
| GTAGCC | -1.17 | -0.226 | -0.63 | -1.17 | -1.13 |
| AAACTG | -0.322 | -1.43 | -1.46 | -0.275 | -0.185 |
| AGTCTA | -0.219 | 0.048 | -0.203 | -0.34 | -0.231 |
| ACTCCG | -0.901 | -0.455 | -0.544 | -0.578 | -1.19 |
| CATCTC | -0.016 | 0.768 | 0.758 | -0.006 | -0.429 |
| CATAAT | 1.94 | 0.774 | 1.18 | 2.03 | 2.22 |
| CTCGTT | -0.393 | 0.409 | -0.071 | -0.287 | -0.19 |
| TCGAGC | -1.09 | 0.567 | 0.369 | -0.923 | -0.755 |
| AAACCG | -1.94 | -2.3 | -1.87 | -1.33 | -1.95 |

| Sequence | 6-mer SELEX enrichment z-score (IMP3 KH1-4) | 6-mer SELEX enrichment z-score (IMP3 RRM1-2) | 6-mer SELEX enrichment z-score (IMP3 full-length) | 6-mer SELEX enrichment z-score (IMP3 KH1-2) | 6-mer SELEX enrichment z-score (IMP3 KH3-4) |
| --- | --- | --- | --- | --- | --- |
| GAATGA | 1.14 | -1.5 | -0.846 | 0.553 | 1.68 |
| TCTCCT | 0.49 | 0.386 | 0.024 | 0.422 | 0.121 |
| TCCTCC | 0.579 | -0.106 | -0.348 | 0.437 | -0.349 |
| CACACG | 0.758 | 1.86 | 2.09 | 0.667 | -0.296 |
| ATGCAT | 1.02 | 0.587 | 0.911 | 0.732 | 0.881 |
| GCGCAT | 0.173 | 0.602 | 1.21 | 0.146 | 0.161 |
| TTCTTT | 0.947 | 0.618 | 0.421 | 0.89 | 0.954 |
| CAGGAT | 0.915 | 0.246 | 0.538 | 0.75 | 0.866 |
| GCGCCA | -0.414 | -0.033 | 0.663 | -0.364 | -0.555 |
| GCCCAA | -2.39 | -1.07 | -1.75 | -2.25 | -2.52 |
| CGGTAC | -0.563 | 0.09 | 0.136 | -0.588 | -0.645 |
| TGGTCT | -0.056 | 0.484 | 0.124 | -0.003 | 0.127 |
| GTGTTG | -0.273 | 0.359 | -0.2 | -0.211 | -0.074 |
| GAACCA | -0.707 | -0.3 | -0.882 | -0.878 | -1.1 |
| CACGGA | 0.449 | -0.157 | 0.44 | 0.038 | 0.048 |
| GGGGCT | 0.526 | 0.278 | 0.58 | 0.787 | 0.848 |
| AGCTTA | -0.565 | -0.066 | -0.472 | -0.448 | -0.343 |
| CGAGAC | -2.09 | -1.01 | -1.08 | -1.89 | -1.93 |
| TGGGGT | 0.36 | 0.469 | 0.365 | 0.524 | 0.623 |
| TTCTAT | 0.885 | 0.508 | 0.293 | 0.89 | 1.07 |
| GCCTCC | -0.308 | -0.275 | -0.007 | -0.237 | -0.775 |

— the supplement of paper PMC6531468
